Certain results were filed several times, with different values. They are shown here; other results are not. There may be further records. Values given together repeat one measurement in other runs, samples, wells, individuals or studies. A date in brackets names the month of the test.
Test system: 439559-082-T-J2-PDC complex spheroid growth
Assay: Anticancer human tumor 439559-082-T-J2-PDC patient-derived colon adenocarcinoma cell line growth inhibition [Asc]
Conditions: compound alone 0.00316 µM; stronger effect = lower value
Method: Multicellular complex tumor spheroid response to apoptosis pathway targeting inhibitors Alrizomadlin, Pelcitoclax, and Dasminapant in combination with a variety of drugs and investigational agents in selected tumor cell lines
The MDM2 inhibitor alrizomadlin, the Bcl-2/Bcl-xL inhibitor pelcitoclax, and the IAPs inhibitor dasminapant were evaluated both individually and in combination with standard of care and investigational anticancer small molecules within a complex spheroid model of solid tumors. . Complex spheroids include a stromal component modeled by human endothelial cells (HUVEC) and fibroblasts modeled by human mesenchymal stem cells (MSCs). The concentration ranges selected for each drug and investigational agent were based upon clinically achievable concentrations if the clinical Cmax of the agent was known.
Compounds. […] If the clinical Cmax for an agent had not been determined, the highest concentration tested was 10 microM. […]
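Further: spheroids exposed to agents for 7 days starting day 3 after seeding; percent of DMSO vehicle control viability with 100% = vehicle.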

## CNC(C)C(=O)NC1CN(S(=O)(=O)c2cccc(S(=O)(=O)N3CCC4CCC(C(=O)NC(c5ccccc5)c5ccccc5)N4C(=O)C(NC(=O)C(C)NC)C3)c2)CCC2CCC(C(=O)NC(c3ccccc3)c3ccccc3)N2C1=O (stereo unspecified)
  viability, T/C: 99.4%, 109% [2022-10] and 54.2, 105, 106, 108, 114, 101, 103% [2022-11]

From PubChem BioAssay AID1963423 (Molecular Pharmacology Branch, DTP, NCI, 2024)
